# Measurements as given in the supplement of paper PMC4723716.
# ± gives the uncertainty stated by the source. The full ranking holds about 9,900 compounds; the median of “viability index relative to DMSO control” is about 1, and the lowest 2% start at about 0.85. The list shows a part of the results.
# System: Plasmodium falciparum NF54 stage V gametocytes
# Assay: viability index relative to DMSO control (fraction); higher = less gametocyte killing
# Settings: 2.5 µM, library set: Broad Institute DOS, incubation time: 72 h
# Summary of the method: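 P. falciparum NF54 stage V gametocytes (serum-free medium, 0.75% gametocytemia, 1.25% hematocrit) were exposed to compound at 2.5 µM for 72 hr at 37°C under low oxygen, then stained with MitoTracker Red CMXRos and saponin for one to two hours. Red particles of 20–70 µm2 in one field per well were counted, and the viability index is that count scaled to the plate mean of solvent-only wells.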
row,SMILES,viability index
1,COc1ccc(NC(=O)N2CC(=O)N3[C@H](C2)[C@@H](c2ccc(Br)cc2)[C@@H]3CO)cc1,0.973 ± 0.025
2,CN(C)C(=O)c1ccc(-c2ccc([C@@H]3[C@@H]4CN(C(=O)Nc5ccc(Cl)cc5)C[C@H]3N4)cc2)cc1,0.967 ± 0.09
3,CCC(=O)N1[C@H](CO)[C@H]2c3ccccc3N(C(=O)c3cnccn3)C[C@H]21,1.02 ± 0.11
4,Cc1nn(C)cc1NC(=O)C[C@H]1CC[C@@H]2[C@@H](COc3ccc(NC(=O)c4cccc(F)c4)cc3C(=O)N2C)O1,1.13 ± 0.14
5,C[C@@H]1CN([C@H](C)CO)C(=O)Cc2cc(NC(=O)CCC(F)(F)F)ccc2O[C@@H]1CN(C)CC1CC1,1.1 ± 0.097
6,COc1ccc(CN(C)C[C@H]2OCCCC[C@H](C)Oc3ccc(NC(=O)C4CCCCC4)cc3C(=O)N([C@@H](C)CO)C[C@@H]2C)cc1,1.08 ± 0.023
7,N#C[C@@H]1[C@@H](c2ccccc2-c2cccc(F)c2)[C@@H](CO)N1C(=O)NC1CCCCC1,1 ± 0.061
8,C[C@@H]1COCc2cn(nn2)CC[C@H](C)C(=O)N1,1.04 ± 0.011
9,O=C(C[C@@H]1CC[C@H](NC(=O)c2cccnc2)[C@@H](CO)O1)NCc1ccc(Cl)c(Cl)c1,0.911 ± 0.023
10,C[C@H]1CN([C@@H](C)CO)C(=O)CCCn2nncc2CO[C@@H]1CN(C)C(=O)Nc1ccc(-c2cccs2)cc1,1.08 ± 0.14
11,CO[C@@H]1CN(C)C(=O)c2cc(NC(C)=O)ccc2OC[C@H](C)N(S(C)(=O)=O)C[C@H]1C,1.059 ± 0.0024
12,CCCC(=O)Nc1ccc2c(c1)C(=O)N(C)C[C@H](OC)[C@H](C)CN(C(=O)c1ccccn1)[C@H](C)CO2,1.04 ± 0.044
13,CC(C)(C)S(=O)N1Cc2cc(C(=O)NCc3ccc(Oc4ccccc4)cc3)nc(-c3cccc(-c4cccc(F)c4)c3)c2[C@@H]1CCO (stereo not given in full),1.02 ± 0.034
14,COc1cccc(S(=O)(=O)N2CC[C@@H]3[C@H]2c2cc(C#Cc4cccnc4)ccc2N[C@@H]3CO)c1,1.06 ± 0.034
15,Cc1ccccc1S(=O)(=O)Nc1ccc2c(c1)C(=O)N(C)[C@@H]1CC[C@H](CC(=O)O)O[C@H]1CO2,0.912 ± 0.21
16,CNC[C@H]1OCc2cnnn2CCCC(=O)N([C@@H](C)CO)C[C@H]1C,1.12 ± 0.055
17,CCCNC(=O)N1CC(=O)N2[C@H](CO)[C@@H](c3ccc(C#Cc4cccc(OC)c4)cc3)[C@H]2C1,0.936 ± 0.075
18,COc1cccc(-c2cn(CC[C@H]3CC[C@@H](NS(=O)(=O)c4ccccc4Cl)[C@@H](CO)O3)nn2)c1,0.991 ± 0.025
19,CO[C@@H]1CN(C)C(=O)c2cc(NC(=O)NC(C)C)ccc2OC[C@@H](C)N(C(=O)CN(C)C)C[C@@H]1C,1.05 ± 0.023
20,CO[C@H]1CN(C)C(=O)c2cccc(C#N)c2OCC[C@@H]2CC[C@H](OC)[C@@H](CN(C)C(=O)[C@H]1C)O2,1.05 ± 0.052
21,O=C(C[C@H]1CC[C@@H]2NC[C@@H](O)COC[C@H]2O1)NCCN1CCCCC1,1.05 ± 0.031
22,COCC#Cc1ccc([C@@H]2[C@@H](CO)N3C(=O)CN(C(=O)Nc4ccccc4F)C[C@@H]23)cc1,1.02 ± 0.025
23,Cn1cnc(S(=O)(=O)N2C[C@H](O)COC[C@@H]3O[C@@H](CC(=O)NCc4cccc(F)c4)CC[C@H]32)c1,1.03 ± 0.071

row,SMILES,viability index
1,O=C(CN1CCOCC1)N1CC(=O)N2[C@H](CO)[C@H](c3ccc(-c4cccc(F)c4)cc3)[C@@H]2C1,1.04 ± 0.082
2,C[C@H]1CN([C@@H](C)CO)C(=O)c2cc(/C=C/c3ccccc3)cnc2O[C@H]1CN(C)S(=O)(=O)c1ccccc1F,1.03 ± 0.12
3,C[C@H](CO)N1C[C@H](C)[C@H](CN(C)C(=O)c2cc(Cl)cc(Cl)c2)OCc2ccccc2-c2ccccc2C1=O,1.04 ± 0.066
4,O=C(c1ccccc1F)N1C[C@@H]2[C@H](c3ccccc31)[C@H](CO)N2Cc1ccc2c(c1)OCO2,0.988 ± 0.11
5,Cc1cccc(S(=O)(=O)N2C[C@H](O)COC[C@@H]3O[C@@H](CC(=O)Nc4ccccc4)CC[C@H]32)c1,1.09 ± 0.065
6,CN1C(=O)c2cc(NC(=O)Cc3cccs3)ccc2OC[C@H]2O[C@@H](CC(=O)NCC3CCCCC3)CC[C@H]21,1.09 ± 0.12
7,O=C(N[C@@H]1CC[C@H](CC(=O)N2CCOCC2)O[C@@H]1CO)c1cccc(F)c1,0.988 ± 0.051
8,C[C@H](NC(=O)C[C@H]1CC[C@H]2[C@@H](COC[C@H](O)CN2Cc2ccc(C(F)(F)F)cc2)O1)c1ccccc1,0.938 ± 0.093
9,C[C@H](CO)N1C[C@H](C)[C@@H](CN(C)S(=O)(=O)c2cccc(F)c2)Oc2ncc(C#CC3(O)CCCC3)cc2C1=O,0.941 ± 0.062
10,C[C@H]1COCc2cnnn2CC[C@H](Cc2ccccc2)C(=O)N1,1.1 ± 0.0052
11,CO[C@@H](CN(C)C(=O)c1cnccn1)[C@H](C)CN([C@H](C)CO)S(=O)(=O)c1ccccc1,1.1746 ± 0.0011
12,C[C@H](CO)N1C[C@H](C)[C@@H](CN(C)Cc2ccc(Oc3ccccc3)cc2)Oc2c(NS(=O)(=O)c3cn(C)cn3)cccc2C1=O,1.13 ± 0.12
13,O=C(c1ccccn1)N1C[C@H]2[C@@H](c3ccccc31)[C@H](CO)N2C(=O)C1CCCCC1,1.027 ± 0.007
14,O=C(C[C@H]1C[C@H]2c3cc(NS(=O)(=O)c4ccccc4)ccc3O[C@H]2[C@@H](CO)O1)N1CCOCC1,0.985 ± 0.031
15,COc1cccc(C#Cc2ccc3c(c2)[C@H]2[C@H](CCN2C(=O)Cc2ccccc2)[C@@H](CO)N3C)c1,1.07 ± 0.025
16,COCC#Cc1ccc([C@H]2[C@H]3CN(C(=O)Nc4ccccc4F)CC(=O)N3[C@H]2CO)cc1,1.01 ± 0.062
17,COc1cccc(NC(=O)N2C[C@H](O)COC[C@@H]3O[C@@H](CC(=O)N(C)C)CC[C@H]32)c1,1.03 ± 0.12
18,N#C[C@@H]1[C@H](c2ccccc2-c2ccc(F)cc2)[C@H](CO)N1C(=O)Cc1cccnc1,1.17 ± 0.12
19,CCCC(=O)Nc1ccc2c(c1)C(=O)N(C)[C@H]1CC[C@@H](CC(=O)N3CCCCC3)O[C@H]1CO2,1.19 ± 0.022
20,C[C@@H]1CCCCO[C@@H](CN(C)Cc2ccc(C(=O)Nc3ccccc3N)cc2)[C@@H](C)CN([C@H](C)CO)C(=O)c2cc(NC(=O)CCC(F)(F)F)ccc2O1,1.06 ± 0.093
21,CCc1cnc(N2[C@H](C#N)[C@@H](c3ccc(C4=CCCCC4)cc3)[C@@H]2CO)s1,1.08 ± 0.095
22,CCCNC(=O)Nc1ccc2c(c1)OC[C@@H](C)N(S(C)(=O)=O)C[C@H](C)[C@@H](OC)CN(C)C2=O,1.02 ± 0.045
